Reference: PMC4336329 (PLoS ONE, 2015)
In all, about 310,000 compounds went through this assay and about 14,000 (4.5%) showed an effect of 50% or more. The effect is printed as a negative number. This is one part of the list.

These compounds were tested against human ether-à-go-go-related gene (hERG) potassium channel (human, UniProt Q12809) (assay: primary screen, population patch clamp on CHO cells stably expressing hERG).
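Note: peak tail current of the secondary pulse compared with the same well before compound.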

Sequence of human ether-à-go-go-related gene (hERG) potassium channel (Q12809 whole entry, looked up): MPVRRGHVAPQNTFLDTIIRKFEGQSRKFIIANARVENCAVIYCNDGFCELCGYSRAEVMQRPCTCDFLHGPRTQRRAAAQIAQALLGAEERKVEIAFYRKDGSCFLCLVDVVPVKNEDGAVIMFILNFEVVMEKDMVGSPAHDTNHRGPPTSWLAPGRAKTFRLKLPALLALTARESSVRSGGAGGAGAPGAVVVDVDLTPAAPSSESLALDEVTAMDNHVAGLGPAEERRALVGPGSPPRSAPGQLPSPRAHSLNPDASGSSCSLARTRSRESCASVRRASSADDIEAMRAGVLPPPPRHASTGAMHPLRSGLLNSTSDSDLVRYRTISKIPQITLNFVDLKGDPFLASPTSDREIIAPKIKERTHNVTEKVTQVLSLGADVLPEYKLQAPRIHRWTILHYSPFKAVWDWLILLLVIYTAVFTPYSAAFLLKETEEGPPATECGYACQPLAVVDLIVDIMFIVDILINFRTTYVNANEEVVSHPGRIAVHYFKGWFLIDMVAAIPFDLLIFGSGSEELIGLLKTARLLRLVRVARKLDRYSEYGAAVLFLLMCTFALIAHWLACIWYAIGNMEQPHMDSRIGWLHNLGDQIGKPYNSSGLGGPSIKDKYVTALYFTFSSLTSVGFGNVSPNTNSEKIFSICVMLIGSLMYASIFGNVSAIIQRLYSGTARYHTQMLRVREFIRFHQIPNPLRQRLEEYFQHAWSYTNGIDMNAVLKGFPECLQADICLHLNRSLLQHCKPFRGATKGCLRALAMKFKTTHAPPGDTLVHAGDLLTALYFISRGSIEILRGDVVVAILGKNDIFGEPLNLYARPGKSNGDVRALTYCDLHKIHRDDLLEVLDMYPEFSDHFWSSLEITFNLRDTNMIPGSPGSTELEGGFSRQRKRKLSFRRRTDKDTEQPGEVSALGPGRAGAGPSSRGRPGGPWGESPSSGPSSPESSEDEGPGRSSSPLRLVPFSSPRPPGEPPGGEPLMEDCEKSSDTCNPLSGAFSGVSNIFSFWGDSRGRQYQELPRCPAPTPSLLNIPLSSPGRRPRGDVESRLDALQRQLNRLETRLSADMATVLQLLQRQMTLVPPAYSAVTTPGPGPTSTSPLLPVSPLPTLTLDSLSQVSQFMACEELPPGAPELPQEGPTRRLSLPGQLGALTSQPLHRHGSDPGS

| Compound | hERG current change (%, negative = inhibition) at 10uM |
| --- | --- |
| CCc1ccc(CC)c(S(=O)(=O)Nc2ccc(C(=O)O)c(O)c2)c1 | 17.3% |
| Cc1cc(C(=O)NNC(=O)CCN2CCN(c3ccccc3)CC2)c2ccccc2n1 | 4.95% |
| CCCCc1cc(=O)oc2cc(C)cc(OC(C)C(=O)O)c12 (stereo not shown) | 18.8% |
| CCC(C)n1[nH]c(=O)cc1N (stereo not shown) | 19.5% |
| CCOC(=O)c1ccc(NC(=O)Nc2ccc(S(N)(=O)=O)cc2)cc1 | -1.88% |
| CCCCc1c(O)c2ccccc2[nH]c1=O | 0.685% |
| Cc1onc(-c2ccccc2)c1C(=O)N1CCN(c2ccccn2)CC1 | 4.01% |
| COc1ccc(/C=N/NC(=O)c2cc(C3CC3)[nH]n2)cc1OC | -10.2% |
| COc1ccc(Cn2c(/C=C/c3ccccc3)nc3ccccc32)cc1 | -15.9% |
| COc1ccccc1CCNC(=O)CSc1nnc2ccc(-c3ccncc3)nn12 | -24.9% |
| O=S(=O)(NCc1ccc2c(c1)OCO2)c1cccc2cccnc12 | -6.62% |
| O=C(CCCn1cnc([N+](=O)[O-])n1)Nc1cccc2ccccc12 | 5.62% |
| Cc1csc(=NC(=O)c2ccccc2)n1CCO | 19.5% |
| c1ccc(CN=C2NN=C(c3cc4ccccc4o3)CS2)cc1 | -16.3% |
| CCOc1ccc(-c2ccc(SCC(=O)N3CCN(c4ccccc4)CC3)nn2)cc1 | 1.96% |
| CCN(CC)S(=O)(=O)c1ccc(N2CCOCC2)c(NC(=O)c2cnccn2)c1 | -34.8% |
| CCN(CC)S(=O)(=O)c1cc(NC(=O)COC(=O)CCC(=O)c2ccc(F)cc2)ccc1C | -46.6% |
| CCOC(=O)c1c(C2CC2)csc1NC(=O)COC(=O)c1cnc(Cl)c(Cl)c1 | 4.99% |
| Br.CCN(CC)S(=O)(=O)c1cccc(C(=O)NN2Cc3ccccc3C2=N)c1 | -4.76% |
| CCOc1ccc(-n2c(SCC(=O)Nc3ccccc3CC)nc3n[nH]c(C)c3c2=N)cc1 | -22.5% |
| Cc1cccc(N(C(=O)c2sc(C)nc2C)C(C(=O)NCC2CCCO2)c2ccccc2)c1 (stereo not shown) | 1.39% |
| COc1ccc(C)cc1NC(=O)CCCN1C(=O)C(c2ccccc2)Oc2cccnc21 (stereo not shown) | 2.21% |
| COc1ccc(OC)c(S(=O)(=O)N2CCCC(C(=O)NCCc3ccccc3)C2)c1 (stereo not shown) | -38.2% |
| Cc1ccc(NC(=O)COC(=O)CN2C(=O)c3ccccc3C2=O)cc1 | -7.65% |
| Clc1ccc(C2[C@H]3CN(Cc4cccnc4)[C@H](c4ccccc4)C34CC2(c2ccccc2)C4)cn1 (stereo partly shown) | 10.2% |
| C=CCn1c(=O)c2ccccc2n2c(SCC(=O)NC)nnc12 | -1.24% |
| CCOC(=O)N1CCN(C(=O)CCc2nc3sc4c(c3c(=O)[nH]2)CCCC4)CC1 | -0.935% |
| COCC1CCCN(C(=O)c2ccc3oc(C(C)C)nc3c2)C1 (stereo not shown) | -1.99% |

| Compound | hERG current change (%, negative = inhibition) at 10uM |
| --- | --- |
| O=C(C(=O)N1CCOCC1)c1cn(Cc2ccccc2Cl)c2ccccc12 | -1.64% |
| COc1cc(-c2cc(C(=O)N3CCN(c4ccccn4)CC3)c3ccccc3n2)cc(OC)c1OC | -31.5% |
| CNC(=O)CSc1nnc(-c2ccco2)n1-c1cccc(C)c1 | -4.75% |
| CC1(C)CC(NC(=O)c2ccc(Cl)c(Cl)c2)CC(C)(C)N1 | -15.2% |
| Oc1ccc(/C=N/n2c(-c3ccccc3)n[nH]c2=S)cc1Br | -6.71% |
| CCC(C)NC(=O)CNC(=O)Cn1c(C)cc2ccccc2c1=O (stereo not shown) | 8.18% |
| COc1ccccc1NC(=O)c1cccs1 | -16.6% |
| COCCn1c(SCC(=O)c2c(N)n(C)c(=O)n(C)c2=O)nc2ccccc21 | 16.2% |
| CC12CCC(C(N)=O)(c3nc4ccccc4nc31)C2(C)C (stereo not shown) | -4.08% |
| CC(=O)c1ccc(Nc2ccc([N+](=O)[O-])c3nonc23)cc1 | 10.3% |
| CC(C)(C)OC(=O)N1CCC(c2c(C(=O)NCC3CCN(C4CCCC4)C3)cnn2-c2ccccc2)CC1 (stereo not shown) | -35.8% |
| COc1cc(C(=O)NNC(=O)Cc2ccc(S(=O)(=O)N3CCOCC3)s2)cc(OC)c1OC | 14.4% |
| CCOC(=O)c1cc(OC(=O)c2cccnc2)n(-c2ccccc2)n1 | -10.9% |
| Cc1ccc(S(=O)(=O)N(C)C)cc1NC(=O)[C@H](Cc1ccccc1)N1C(=O)c2ccccc2C1=O | 1.36% |
| Cc1ccc(NC(=O)c2ccc3c(=O)n4c(nc3c2)CCC4)cc1F | -9.1% |
| COCCn1nnnc1C(c1cccc(C(F)(F)F)c1)N1CCN(Cc2ccccc2)CC1.Cl (stereo not shown) | -15.8% |
| CCOc1ccc(NC(=O)CCC(=O)c2ccc(Br)cc2)cc1 | 15% |
| O=C1CC(c2ccco2)CC(O)=C1C=NCCO (stereo not shown) | 7.61% |
| Cc1cccc(-c2nc(Nc3ccc(N4CCOCC4)cc3)c3ccccc3n2)c1 | 1.55% |
| COc1ccc2[nH]cc(CCNS(=O)(=O)c3ccccc3)c2c1 | 11.7% |
| CCOC(=O)C1C(=O)CC(C)(O)C(C(=O)OCC)C1c1ccccc1OC (stereo not shown) | 2.84% |
| CCN1CCCC1CNC(=O)C1c2cc(OC)c(OC)cc2C(=O)N(C)C1c1cccnc1 (stereo not shown) | 2.02% |
| CSCCC(N=Cc1c(O)n(-c2ccc(F)cc2)c(=O)[nH]c1=O)C(=O)OC(C)(C)C (stereo not shown) | -8.26% |
| Cc1ccc(CNS(=O)(=O)c2c(C)n(C)c(=O)n(C)c2=O)cc1 | 3.08% |
| CCCN1CCC(NC2CCC(O)CC2)CC1 (stereo not shown) | 2.14% |
| Cc1cccc(C)c1NC(=O)CN(C)CC(=O)Nc1ccccc1Oc1ccccc1 | 11.3% |
| CCc1nnc(NS(=O)(=O)c2ccccc2)s1 | 14.9% |
